# About 230 (0.21%) of roughly 110,000 compounds showed an effect of 50% or more. The list shows a part of the results.
# Biological target: DPAP1 (Plasmodium falciparum, UniProt Q8IIJ9)
# Test: primary screen, percent inhibition; read by cleavage of a fluorogenic dipeptide substrate; higher = more effect of the substance
# Parameters: species or system P. falciparum D10 trophozoite lysates; single well
# 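Note: 30 min substrate incubation versus DMSO and 10 µM JCP410 controls.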
# Sequence of DPAP1 (Q8IIJ9 whole entry, looked up): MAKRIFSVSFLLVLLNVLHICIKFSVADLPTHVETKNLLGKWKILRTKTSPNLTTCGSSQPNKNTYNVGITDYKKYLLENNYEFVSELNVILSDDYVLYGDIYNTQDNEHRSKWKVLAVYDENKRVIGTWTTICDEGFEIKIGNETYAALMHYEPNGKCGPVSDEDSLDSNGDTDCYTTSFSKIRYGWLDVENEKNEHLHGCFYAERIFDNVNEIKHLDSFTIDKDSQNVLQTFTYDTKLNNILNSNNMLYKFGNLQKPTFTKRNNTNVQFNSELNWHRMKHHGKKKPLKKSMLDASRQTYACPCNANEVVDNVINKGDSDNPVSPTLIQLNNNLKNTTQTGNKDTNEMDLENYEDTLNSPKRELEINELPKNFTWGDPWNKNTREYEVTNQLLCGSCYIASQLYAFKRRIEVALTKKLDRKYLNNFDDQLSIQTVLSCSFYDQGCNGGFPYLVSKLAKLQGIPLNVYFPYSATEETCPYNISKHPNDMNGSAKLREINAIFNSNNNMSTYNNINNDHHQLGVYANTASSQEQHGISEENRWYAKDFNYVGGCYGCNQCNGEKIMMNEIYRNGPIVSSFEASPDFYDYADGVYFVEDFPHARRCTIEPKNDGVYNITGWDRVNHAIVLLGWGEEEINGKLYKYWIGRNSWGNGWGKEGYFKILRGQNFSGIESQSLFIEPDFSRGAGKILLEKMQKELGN
row,Compound,% Inhibition @ 10 uM [%]
1,Fc1ccc(OCCCN2CCCC2)cc1,-2.12
2,CCC1C=C(c2ccc([N+](=O)[O-])cc2)OC(N2CCCCC2)C1C (stereo not drawn),3.25
3,O=C(Cn1cnc2ccccc21)Nc1ccc([N+](=O)[O-])cc1,4.89
4,COc1cccc(C2c3c(oc4cc(C)c(C)cc4c3=O)C(=O)N2c2nccs2)c1 (stereo not drawn),3.73
5,Cn1c2ccccc2c2cnn(CC(=O)NCCc3c[nH]c4ccccc34)c(=O)c21,-3.67
6,CNC(=O)CCC(=O)N1Cc2cccc(OC)c2Oc2ncccc21,2.01
7,Cc1cccnc1NC(=O)c1cc2c(=O)oc3ccccc3c2s1,5.4
8,c1ccc2nc(N3CCCCCC3)ccc2c1,-1.2
9,O=C(Cn1c(=O)n(Cc2ccccc2)c(=O)c2sc3ccccc3c21)NCc1ccccc1,2.04
10,CS(=O)(=O)N1CCN(C/C=C/c2ccccc2)CC1,-1.18
11,CO/C(O)=C1/C(C)=Nc2ncnn2C1c1cccnc1 (stereo not drawn),-2.13
12,O=C(/C=C/c1ccc(-c2ccccc2)cc1)NCCOc1ccc(F)cc1,-1.68
13,N#CC1=C(N)Oc2cc(N)ccc2C1c1cc(Br)cs1 (stereo not drawn),3.1
14,COc1ccc(C(=O)NCCc2cccc(OC)c2)cc1,-10.3
15,O=C(CSc1nc(-c2ccco2)nc2cc(=O)[nH]n12)N1CCCC1,-2.5
16,Cc1ccc(NC(=O)CC(C(=O)O)c2ccccc2)cc1 (stereo not drawn),-0.95
17,CCn1c(C2CC(=O)N(c3ccccc3)C2)nc2ccccc21 (stereo not drawn),10.6
18,COc1ccc(-c2ccc(CNCCSc3nnnn3-c3ccccc3)o2)cc1Cl,0.596
19,COc1ccc(C)cc1N(CC(=O)NCC(C)C)S(=O)(=O)c1ccc(C)cc1,5.26
20,COc1ccc(C(=O)CC2(O)C(=O)N(Cc3ccccc3)c3ccccc32)cc1OC (stereo not drawn),-9.45
21,O=C(O)COc1ccc(-c2nnn(Cc3ccccc3)n2)cc1,5.45
22,CC1(C)CC2CC(C)(CN2C(=O)c2cc(-c3ccc4c(c3)OCO4)on2)C1 (stereo not drawn),-3.77
23,CN(C1CCCCC1)C1CCN(CCc2ccccc2)CC1,1.26
24,COc1cc(C2C(C#N)=C(N)Oc3cc(N)ccc32)ccc1O (stereo not drawn),-2.32
25,CC1(C)CC(=O)C2=C(C1)N(CC1CCCO1)C(=O)C2(NC(=O)c1ccco1)C(F)(F)F (stereo not drawn),-5.4

row,Compound,% Inhibition @ 10 uM [%]
1,O=C(Nc1nc[nH]n1)c1cccc2ccccc12,-2.42
2,Cn1c2c(c(=O)n(C)c1=O)C(c1ccc([N+](=O)[O-])cc1)C1=C(O)c3ccccc3C1=N2 (stereo not drawn),-2.32
3,C(#Cc1ccc2noc(-c3ccccc3)c2c1)c1ccccc1,-4.58
4,O=C(Nc1ccc(S(=O)(=O)N2CCCCC2)cc1)C1CCCCC1,-5.92
5,COc1cc(OC)c2c(C(=O)O)cc(-c3ccc(O)c(OC)c3)nc2c1,0.8
6,Cc1nc2ccccc2n1C(C)c1ccccc1 (stereo not drawn),7.75
7,CCc1nc2ccccc2n1Cc1cccc(C)c1,-2.28
8,CC(C)C[C@H](NC(=O)c1cc(O)c2ccccc2n1)C(=O)NCC#N,0.556
9,O=C(NCc1cccnc1)C1CCCN(S(=O)(=O)c2ccc3nc(O)ccc3c2)C1 (stereo not drawn),-7.74
10,COc1cccc(C2CC(=O)N3CN(C4CCCCC4)CSC3=C2C#N)c1OC (stereo not drawn),21.8
11,COc1ccccc1NS(=O)(=O)c1ccc(F)cc1,0.827
12,N#Cc1cn(CC(=O)NCC2CCCO2)c2ccccc12 (stereo not drawn),0.777
13,CCC(C)NC(=O)CCC(=O)N1Cc2cccc(OC)c2Oc2ncccc21 (stereo not drawn),-0.436
14,CC1=C(C(=O)Nc2ccccc2C(F)(F)F)C(c2ccc(F)cc2)C2=C(O)CCCC2=N1 (stereo not drawn),-0.25
15,CCN1C(=O)N/C(=C/c2cccc(OC)c2OCc2cccc(C(=O)O)c2)C1=O,-2.85
16,COCCCNc1nc2c(c(=O)n(C)c(=O)n2C)n1Cc1ccccc1C,-3.05
17,COc1ccc(C(=O)N(Cc2nc(-c3ccc(Cl)cc3)no2)C(C)C)cc1OC,-1.84
18,COc1ccc(S(=O)(=O)NCCOc2cccc3cccnc23)cc1OC,-2.5
19,Cc1cc(/C=C2\SC(=O)NC2=O)c(C)n1-c1cccnc1,5.3
20,O=C(O)/C=C\C(=O)Nc1cccc2cccnc12,-0.127
21,CCCCCOc1ccc(C2(c3ccccc3)NC(=O)NC2=O)cc1 (stereo not drawn),-0.687
22,CC1(C)CC(NC(=O)C2CCCC2)CC(C)(CNC(=O)C2CCCC2)C1 (stereo not drawn),-3.92
23,COc1ccc(CCNC(=O)Cn2c(-c3nonc3N)nc3ccccc32)cc1OC,-1.79
24,CCCC1=C(C(=O)OCC)C(c2ccccc2OCC)NC(=O)N1C (stereo not drawn),3.87
25,Cc1ccc(SCC(=O)Nc2cccc(NC(=O)COc3ccccc3)c2)cc1,-0.0938

row,Compound,% Inhibition @ 10 uM [%]
1,COc1ccc(/C=C/c2nc(=O)cc(-c3ccccc3)o2)cc1,0.275
2,Cc1ccc(S(=O)(=O)NCc2cn3cccc(C)c3n2)c(C)c1,0.00665
3,CCOc1ccc(-c2nonc2NC(=O)COc2ccc(CC)cc2)cc1OCC,1.9
4,CC1CCN(C(=O)CN(c2cccc3ccccc23)S(C)(=O)=O)CC1,-2.44
5,O=C(O)c1cccc(NC(=O)c2cccc(NC(=O)c3cccs3)c2)c1,3.58
6,Cc1c(C(=O)NCCC2=CCCCC2)sc2ncnc(N3CCCCC3C)c12 (stereo not drawn),4.35
7,Nc1c(C(=O)Nc2ccc(F)cc2)sc2nc3c(cc12)CCCC3,-4.66
8,CC1CCN(c2nc3c(S(=O)(=O)c4ccc(Br)cc4)nnn3c3ccsc23)CC1,-4.95
9,Cc1ccc(-n2nnc3c(=O)n(Cc4ccccc4C)cnc32)cc1,-2.16
10,O=C(Cn1cc2c(n1)CCCCC2)N1CCC2(CC1)OCCO2,0.137
11,Cc1cc2c(c(=O)n1Cc1ccccc1)C(c1ccc3c(c1)OCO3)C(C#N)=C(N)O2 (stereo not drawn),0.343
12,O=C(Nc1ccc(Cl)c(C(F)(F)F)c1)c1ccco1,5.35
13,COc1ccc(-c2nc(CN(C)C)ccc2O)cc1,-1.45
14,COC(=O)c1cc(S(=O)(=O)N2CCN(C(=O)c3ccco3)CC2)cn1C,3.95
15,O=C(NC1CCCCCC1)c1oc(=O)c2ccccc2c1-c1ccccc1,1.9
16,CC(=O)Nc1c(C(=O)N2CCc3ccccc3C2)cnn1-c1ccccc1Cl,0.583
17,CC1=C(C(=O)NC(C)CCc2ccccc2)C2(CCC(C)CC2)OC1=O (stereo not drawn),3.19
18,O=C(NC12CC3CC(CC(C3)C1)C2)C(=O)c1c[nH]c2ccccc12,-0.988
19,O=C(Cn1cc(C(=O)C(F)(F)F)c2ccccc21)NC1CCCC1,0.475
20,COc1ccc(C(Cc2ccccc2)NC2CN3CCC2CC3)cc1 (stereo not drawn),-4.82
21,COc1ccc(/C=C2\N=C(c3ccccc3F)OC2=O)cc1,-4.27
22,O=S(=O)(c1ccccc1)c1nnn2c1nc(NCC1CCCO1)c1ccccc12 (stereo not drawn),6.41
23,CCOC(=O)N1CCN(C(=O)CNC(=S)N(Cc2cccs2)C2CCCC2)CC1,2.9
24,O=c1c2c([nH]c(=S)n1C1CCCCC1)-c1ccccc1CC21CCCCC1,-5.62
25,N#Cc1sc2nc(-c3ccccc3)ccc2c1N,4.66

row,Compound,% Inhibition @ 10 uM [%]
1,O=C(O)c1cccc(-c2ccc(/C=C3\NC(=O)N(Cc4ccccc4F)C3=O)o2)c1,6.57
2,CCOC(=O)/C(=C\N1CCc2ccccc2C1)C(C)=O,1.18
3,COc1cc(/C=C2/C(=N)N3C(SCC(C)C)=NSC3=NC2=O)cc(OC)c1OC,5.5
4,Cc1ccc(C)c(CSc2cn(CC(=O)N3CCOCC3)c3ccccc23)c1,-3.13
5,O=C(CNS(=O)(=O)c1ccc(Br)s1)N1CCC2(CC1)OCCO2,-2.65
6,OCC1CCCN(Cc2cc(F)ccc2F)C1 (stereo not drawn),-2.02
7,COc1cc(CN2CCSCC2)cc(OC)c1,-0.833
8,CSc1ccc(/C=C(\C#N)c2nc3cc(C)ccc3[nH]2)cc1,20.5
9,Cc1ccc(O)c(C2=NN3C(C2)c2ccccc2OC3c2ccncc2)c1 (stereo not drawn),-3.48
10,CCC(C)NC(=O)CN(c1ccccc1OC)S(=O)(=O)c1ccccc1 (stereo not drawn),-3.75
11,CCN(CC)C(=O)C1CCCN(Cc2ccc(Cl)c([N+](=O)[O-])c2)C1 (stereo not drawn),0.847
12,CCOc1ccccc1CNC(=O)CCCn1ncn2c(cc3sc(CC)cc32)c1=O,3.29
13,COCCN1C(=O)/C(=C/c2ccc(N3CCCC3)cc2)S/C1=N\c1ccccc1,-3.25
14,CC1(C)CC(=O)C(/C=N/CCCN2CCOCC2)=C(O)C1,-6.51
15,C=CCOc1ccc(C(=O)C2=C(O)C(=O)N(CCCN(C)C)C2c2ccc(Cl)cc2)cc1C (stereo not drawn),-1.93
16,Cc1ccc(C(=O)N(Cc2cccc(F)c2)C2CCS(=O)(=O)C2)cc1 (stereo not drawn),-1.35
17,O=C(O)CCC(=O)Nc1ccccc1C(=O)NC1CCCCC1,6.61
18,Cc1oc2ncn(C)c(=O)c2c1C(=O)NCc1ccc(F)cc1,-2.19
19,Clc1cccc(OCCCCCn2ccnc2)c1,-7.06
20,Cc1nc2scc(C)n2c(=O)c1S(=O)(=O)NCc1ccco1,-1.55
21,CCC[C@H](NC(=O)C1(NC(=O)c2cccnc2)CCCCC1)C(=O)c1nc2ccccc2o1,0.173
22,COc1ccc2cc(C(C)c3nc4ccccc4n3C)ccc2c1 (stereo not drawn),1.12
23,CCc1nn(CCCC(=O)NCCc2ccc(S(N)(=O)=O)cc2)c(=O)c2cc3occc3n12,-0.281
24,CC[C@H](NC(=O)C(CC(=O)OC1CCCCC1)NC(=O)c1ccc(-c2ccccc2Cl)cc1)C(=O)c1nc2ccccc2o1 (stereo partly drawn),-8.81
